The conditions of this series: in vitro, previously tested.

Molecules are shown by their SMILES.

The compound `[N-]=[N+]=Nc1ccc(NCCCCCCN2C[C@H](O)[C@@H](O)[C@H](O)[C@H]2CO)c([N+](=O)[O-])c1` [NAP-DNJ, N—(N-{4′-azido-2′-nitrophenyl}-6-aminohexyl)deoxynojirimycin] gave a CC50 of 125 to 250 µM.
